IC50 is the fitted dose that halves viability relative to control wells, and lower means more sensitive; a limit (>, <) means that the fit lies beyond the doses tested. AUC is the area under the same curve over the 256-fold range up to the top dose, as a fraction; values near 1 show little effect. For part of these data: Any top dose called inferred was derived from the fitted curves, not read from the paper.
Assays:
Experiment in all cases: Viability of human cancer cell lines after 72 h of drug (GDSC screen)
Dimethyloxalylglycine = compound: COC(=O)CNC(=O)C(=O)OC [Dimethyloxalylglycine]; conditions: top dose 4000 µM; top dose inferred
Protocol: (§1)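 Human cancer cell lines in 384-well plates, medium with 10% serum, drug for 72 h over a 256-fold dose range (nine 2-fold or five 4-fold steps up to the top dose). Adherent lines were fixed and stained with the nucleic acid dye Syto60, suspension lines read with resazurin; signal relative to control wells, capped at 0 and 100%. One two-parameter sigmoid per drug and line, fitted in a mixed model over all curves with the slope shared within a line.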

CCT018159 = compound: CCc1cc(-c2n[nH]c(C)c2-c2ccc3c(c2)OCCO3)c(O)cc1O [CCT018159]; conditions: top dose 10 µM; top dose inferred
Protocol: as §1

TG101348 = compound: Cc1cnc(Nc2ccc(OCCN3CCCC3)cc2)nc1Nc1cccc(S(=O)(=O)NC(C)(C)C)c1 [TG101348]; conditions: top dose 10.24 µM
Protocol: as §1

BIX02189 = compound: CN(C)Cc1cccc(N=C(c2ccccc2)c2c(O)[nH]c3cc(C(=O)N(C)C)ccc23)c1 [BIX02189]; conditions: top dose 20 µM; top dose inferred
Protocol: as §1

VX-11e = compound: Cc1cnc(Nc2ccc(F)cc2Cl)nc1-c1c[nH]c(C(=O)N[C@H](CO)c2cccc(Cl)c2)c1 [VX-11e]; conditions: top dose 5.12 µM; top dose inferred
Protocol: as §1

OSI-027 = compound: COc1cccc2cc(-c3nc([C@H]4CC[C@H](C(=O)O)CC4)n4ncnc(N)c34)[nH]c12 [OSI-027]; conditions: top dose 20 µM
Protocol: as §1

UNC1215 = compound: O=C(c1ccc(C(=O)N2CCC(N3CCCC3)CC2)c(Nc2ccccc2)c1)N1CCC(N2CCCC2)CC1 [UNC1215]; conditions: top dose 1 µM; top dose inferred
Protocol: as §1

RD (rhabdomyosarcoma, adherent)
AUC (Dimethyloxalylglycine): 0.644
IC50 (Dimethyloxalylglycine): 652 µM
AUC (CCT018159): 0.912
IC50 (CCT018159): > 10 µM
AUC (TG101348): 0.768
IC50 (TG101348): 4.2 µM
AUC (BIX02189): 0.941
IC50 (BIX02189): > 20 µM
AUC (VX-11e): 0.707
IC50 (VX-11e): 1.31 µM
AUC (OSI-027): 0.284
IC50 (OSI-027): 0.287 µM
AUC (UNC1215): 0.983
IC50 (UNC1215): > 1 µM

BEN (non-small cell lung carcinoma, adherent)
AUC (Dimethyloxalylglycine): 0.212
IC50 (Dimethyloxalylglycine): 30.6 µM
AUC (CCT018159): 0.972
IC50 (CCT018159): > 10 µM
AUC (TG101348): 0.881
IC50 (TG101348): > 10.2 µM
AUC (BIX02189): 0.961
IC50 (BIX02189): > 20 µM
AUC (VX-11e): 0.977
IC50 (VX-11e): > 5.12 µM
AUC (OSI-027): 0.327
IC50 (OSI-027): 0.381 µM
AUC (UNC1215): 0.984
IC50 (UNC1215): > 1 µM

ECC12 (stomach, suspension)
AUC (Dimethyloxalylglycine): 0.786
IC50 (Dimethyloxalylglycine): 2220 µM

COR-L32 (small cell lung carcinoma, suspension)
AUC (UNC1215): 0.954
IC50 (UNC1215): > 1 µM

CAMA-1 (breast, adherent)
AUC (Dimethyloxalylglycine): 0.804
IC50 (Dimethyloxalylglycine): 2620 µM
AUC (CCT018159): 0.957
IC50 (CCT018159): > 10 µM
AUC (TG101348): 0.953
IC50 (TG101348): > 10.2 µM
AUC (BIX02189): 0.963
IC50 (BIX02189): > 20 µM
AUC (VX-11e): 0.969
IC50 (VX-11e): > 5.12 µM
AUC (OSI-027): 0.668
IC50 (OSI-027): 4.15 µM
AUC (UNC1215): 0.982
IC50 (UNC1215): > 1 µM

NCI-H2170 (lung squamous cell carcinoma, adherent)
AUC (Dimethyloxalylglycine): 0.798
IC50 (Dimethyloxalylglycine): 2000 µM
AUC (CCT018159): 0.853
IC50 (CCT018159): 8.39 µM
AUC (TG101348): 0.95
IC50 (TG101348): > 10.2 µM
AUC (BIX02189): 0.982
IC50 (BIX02189): > 20 µM
AUC (VX-11e): 0.986
IC50 (VX-11e): > 5.12 µM
AUC (OSI-027): 0.929
IC50 (OSI-027): > 20 µM
AUC (UNC1215): 0.986
IC50 (UNC1215): > 1 µM

NCI-H1650 (lung adenocarcinoma, adherent)
AUC (CCT018159): 0.956
IC50 (CCT018159): > 10 µM

SNU-1040 (large intestine, adherent)
AUC (TG101348): 0.716
IC50 (TG101348): 3.28 µM
AUC (BIX02189): 0.932
IC50 (BIX02189): > 20 µM
AUC (VX-11e): 0.853
IC50 (VX-11e): > 5.12 µM
AUC (OSI-027): 0.711
IC50 (OSI-027): 6.11 µM
AUC (UNC1215): 0.966
IC50 (UNC1215): > 1 µM

COR-L303 (small cell lung carcinoma, suspension)
AUC (TG101348): 0.885
IC50 (TG101348): > 10.2 µM
AUC (BIX02189): 0.979
IC50 (BIX02189): > 20 µM
AUC (VX-11e): 0.979
IC50 (VX-11e): > 5.12 µM
AUC (OSI-027): 0.293
IC50 (OSI-027): 0.334 µM

SNU-398 (liver, adherent)
AUC (Dimethyloxalylglycine): 0.546
IC50 (Dimethyloxalylglycine): 337 µM
AUC (TG101348): 0.926
IC50 (TG101348): > 10.2 µM
AUC (BIX02189): 0.972
IC50 (BIX02189): > 20 µM
AUC (VX-11e): 0.821
IC50 (VX-11e): 3.13 µM
AUC (OSI-027): 0.249
IC50 (OSI-027): 0.229 µM
AUC (UNC1215): 0.984
IC50 (UNC1215): > 1 µM

PC-3 (prostate, adherent)
AUC (Dimethyloxalylglycine): 0.548
IC50 (Dimethyloxalylglycine): 349 µM
AUC (CCT018159): 0.886
IC50 (CCT018159): > 10 µM
AUC (BIX02189): 0.964
IC50 (BIX02189): > 20 µM
AUC (VX-11e): 0.969
IC50 (VX-11e): > 5.12 µM
AUC (OSI-027): 0.254
IC50 (OSI-027): 0.207 µM
AUC (UNC1215): 0.978
IC50 (UNC1215): > 1 µM

YMB-1-E (breast, adherent)
AUC (TG101348): 0.948
IC50 (TG101348): > 10.2 µM
AUC (BIX02189): 0.974
IC50 (BIX02189): > 20 µM
AUC (VX-11e): 0.972
IC50 (VX-11e): > 5.12 µM
AUC (OSI-027): 0.427
IC50 (OSI-027): 0.734 µM

CAL-148 (breast, suspension)
AUC (Dimethyloxalylglycine): 0.846
IC50 (Dimethyloxalylglycine): 2580 µM
AUC (TG101348): 0.923
IC50 (TG101348): > 10.2 µM
AUC (BIX02189): 0.975
IC50 (BIX02189): > 20 µM
AUC (VX-11e): 0.988
IC50 (VX-11e): > 5.12 µM
AUC (OSI-027): 0.448
IC50 (OSI-027): 0.91 µM

HeLa (cervix, adherent)
AUC (Dimethyloxalylglycine): 0.501
IC50 (Dimethyloxalylglycine): 251 µM
AUC (BIX02189): 0.988
IC50 (BIX02189): > 20 µM
AUC (VX-11e): 0.986
IC50 (VX-11e): > 5.12 µM
AUC (OSI-027): 0.925
IC50 (OSI-027): > 20 µM
AUC (UNC1215): 0.985
IC50 (UNC1215): > 1 µM

LU-99A (large cell lung carcinoma, adherent)
AUC (Dimethyloxalylglycine): 0.478
IC50 (Dimethyloxalylglycine): 217 µM
AUC (CCT018159): 0.879
IC50 (CCT018159): > 10 µM
AUC (TG101348): 0.921
IC50 (TG101348): > 10.2 µM
AUC (BIX02189): 0.943
IC50 (BIX02189): > 20 µM
AUC (VX-11e): 0.963
IC50 (VX-11e): > 5.12 µM
AUC (OSI-027): 0.886
IC50 (OSI-027): > 20 µM
AUC (UNC1215): 0.984
IC50 (UNC1215): > 1 µM

GCT (soft tissue, adherent)
AUC (Dimethyloxalylglycine): 0.913
IC50 (Dimethyloxalylglycine): > 4000 µM
AUC (CCT018159): 0.88
IC50 (CCT018159): 9.1 µM
AUC (TG101348): 0.9
IC50 (TG101348): > 10.2 µM
AUC (BIX02189): 0.989
IC50 (BIX02189): > 20 µM
AUC (VX-11e): 0.989
IC50 (VX-11e): > 5.12 µM
AUC (OSI-027): 0.988
IC50 (OSI-027): > 20 µM
AUC (UNC1215): 0.988
IC50 (UNC1215): > 1 µM

BFTC-909 (kidney, adherent)
AUC (Dimethyloxalylglycine): 0.511
IC50 (Dimethyloxalylglycine): 268 µM
AUC (CCT018159): 0.835
IC50 (CCT018159): 6.36 µM
AUC (TG101348): 0.967
IC50 (TG101348): > 10.2 µM
AUC (BIX02189): 0.985
IC50 (BIX02189): > 20 µM
AUC (VX-11e): 0.978
IC50 (VX-11e): > 5.12 µM
AUC (OSI-027): 0.959
IC50 (OSI-027): > 20 µM
AUC (UNC1215): 0.982
IC50 (UNC1215): > 1 µM

COR-L311 (small cell lung carcinoma, suspension)
AUC (TG101348): 0.768
IC50 (TG101348): 4.11 µM
AUC (BIX02189): 0.954
IC50 (BIX02189): > 20 µM
AUC (VX-11e): 0.935
IC50 (VX-11e): > 5.12 µM
AUC (OSI-027): 0.231
IC50 (OSI-027): 0.194 µM

SN12C (kidney, adherent)
AUC (Dimethyloxalylglycine): 0.453
IC50 (Dimethyloxalylglycine): 183 µM
AUC (CCT018159): 0.903
IC50 (CCT018159): > 10 µM
AUC (TG101348): 0.95
IC50 (TG101348): > 10.2 µM
AUC (BIX02189): 0.983
IC50 (BIX02189): > 20 µM
AUC (VX-11e): 0.984
IC50 (VX-11e): > 5.12 µM
AUC (OSI-027): 0.935
IC50 (OSI-027): > 20 µM
AUC (UNC1215): 0.983
IC50 (UNC1215): > 1 µM

SNU-175 (large intestine, suspension)
AUC (TG101348): 0.597
IC50 (TG101348): 1.16 µM
AUC (BIX02189): 0.914
IC50 (BIX02189): > 20 µM
AUC (VX-11e): 0.863
IC50 (VX-11e): 3.97 µM
AUC (OSI-027): 0.661
IC50 (OSI-027): 3.39 µM

SW1116 (large intestine, adherent)
AUC (CCT018159): 0.937
IC50 (CCT018159): > 10 µM
AUC (TG101348): 0.985
IC50 (TG101348): > 10.2 µM
AUC (BIX02189): 0.978
IC50 (BIX02189): > 20 µM
AUC (VX-11e): 0.985
IC50 (VX-11e): > 5.12 µM
AUC (OSI-027): 0.875
IC50 (OSI-027): > 20 µM
AUC (UNC1215): 0.984
IC50 (UNC1215): > 1 µM
